Test results: the RNAGym collection of RNA variant scans (doi:10.1073/pnas.2313332121)
Variants at the floor of the assay are shown more often than the library holds them.

B1: TPR 5TU (parent)
chain: GGAUCUUCUCGAUCUAACAAAAAAGACAAAUCUGCCACAAAGCUUGAGAGCAUCUUCGGAUGCAGAGGCGGCAGCCUUCGGUGGCGCGAUAGCGCCAACGUUCUCAACUAUGACACGCAAAACGCGUGCUCCGUUGAAUGGAGUUUAUCAUG

Variants of: B1
Assay: polymerase ribozyme fitness, log enrichment relative to wild type (log ratio); higher = more active; in vitro selection for triplet polymerase activity
How it was run: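 PCR was used to build mutant libraries for each subunit of a heterodimeric triplet polymerase ribozyme, which were then transcribed. A single in vitro selection round, in triplicate, used a frozen incubation at −7 °C and recovered extended constructs by gel excision, streptavidin beads and RT-PCR. Fitness is the logarithm of genotype enrichment relative to wild-type enrichment, averaged over replicates with inverse-variance weights. The logarithm is base 2, and after Illumina sequencing only genotypes with ≥10 input reads and ≥1 read per output were kept.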

Variant | polymerase ribozyme fitness (log ratio)
GGAUCUUCUCGAUCUAACAAAAAAGACAAAUCUGCCACAAAGCUUGAGAGCAUCUUCGGAUGCAGAGGCGGCAGGCUUCGGUAGCGCGAUAGCGCCAUCGUUCUCAACUAUGACACGCAAAACGCGUGCUCCGUUGAAAGGAGUCUAUCAUG [C75G G83A A98U U139A U145C] | ≤ -4.2
GGAUCUUCUCGAUCUAACAAAAAAGACAAAUCUGCCACAAAGCUUGAGAGCAUCUUCGGAUGCAGAGGCGGCAGGCUUCGGUGACGCGAUAGCGCCAACGUUCUCAACUAUGACACGCAAAACGCGUGCUCCGUUGAAUGGAGUUUAUCAUG [C75G G84A] | -3.93
GGAUCUUCUCGAUCUAACAAAAAAGACAAAUCUGCCACAAAGCUUGAGAGCAUCUUCGGAUGCAGAGGCGGCAGGCUUCGGUGACGCGAUAGCGCCAACGUUCUCAACUAUGACACGCAAAACUCGUGCUCCGUUGAAUGGAGUUUAUCAUG [C75G G84A G124U] | ≤ -4.2
GGAUCUUCUCGAUCUAACAAAAAAGACAAAUCUGCCACAAAGCUUGAGAGCAUCUUCGGAUGCAGAGGCGGCAGGCUUCGGUGCCGCGAUAGCGCCAACGUUCUCAACUAUGACACGCAAAACGCGUGCUCCGUUGAAUGGAGUUUAUCAUG [C75G G84C] | ≤ -4.2
GGAUCUUCUCGAUCUAACAAAAAAGACAAAUCUGCCACAAAGCUUGAGAGCAUCUUCGGAUGCAGAGGCGGCAGGCUUCGGUGGCGCAAUAGCGCCAACGUUCUCAACUAUGACACGCAUAACGCGUGCUCCGUUGAAUGGAGUUUAUCAUG [C75G G88A A120U] | ≤ -4.2
GGAUCUUCUCGAUCUAACAAAAAAGACAAAUCUGCCACAAAGCUUGAGAGCAUCUUCGGAUGCAGAGGCGGCAGGCUUCGGUGGCGCCAUUGCGCCAACGUUCUCAACUAUGACACGCAAAACGCGUGCUCCGUACAAUGGAGUUUAUCAUG [C75G G88C A91U U135A G136C] | ≤ -4.2
GGAUCUUCUCGAUCUAACAAAAAAGACAAAUCUGCCACAAAGCUUGAGAGCAUCUUCGGAUGCAGAGGCGGCAGGCUUCGGUGGCGCGAUAUCGCCAACGUUCUGAACUAUGACACGCAAAACGCGUGCUCCGUUGAAUGGAGUUUAUCAUG [C75G G92U C105G] | ≤ -4.2
GGAUCUUCUCGAUCUAACAAAAAAGACAAAUCUGCCACAAAGCUUGAGAGCAUCUUCGGAUGCAGAGGCGGCAGGCGUCCGUGGCGCGAUAGCGCCUACGUUCUCAACUAUGACACGCAAAACACGUGCUCCGUUGAAUGGAGUUUAUCAUG [C75G U77G G80C A97U G124A] | ≤ -4.2
GGAUCUUCUCGAUCUAACAAAAAAGACAAAUCUGCCACAAAGCUUGAGAGCAUCUUCGGAUGCAGAGGCGGCAGGCUCCGGUGGCGCGAUAGCGCCAAUGUUCUCAACUAUGACACGCAAAACGCGUGCUCGGUUGAAUGGAGUUUAUCAUG [C75G U78C C99U C132G] | ≤ -4.2
GGAUCUUCUCGAUCUAACAAAAAAGACAAAUCUGCCACAAAGCUUGAGAGCAUCUUCGGAUGCAGAGGCGGCAGGCUGCGGUGGCGCGAUAGCGCCAACGUUCUCAACUAUGACACGCAAAACGCGUGCUCCGUUGAAUGGAGUUUAUCAUG [C75G U78G] | ≤ -4.2
GGAUCUUCUCGAUCUAACAAAAAAGACAAAUCUGCCACAAAGCUUGAGAGCAUCUUCGGAUGCAGAGGCGGCAGGCUGCGGUGGCGCGAUAGCGCCAACGUUCUCAACUAUGACGCGCAAAACGCGUGCUCCGUUGAAUGGAGUUUAUCAUG [C75G U78G A115G] | ≤ -4.2
GGAUCUUCUCGAUCUAACAAAAAAGACAAAUCUGCCACAAAGCUUGAGAGCAUCUUCGGAUGCAGAGGCGGCAGGCUGCGGUGGGGCGAUAGAGCCAACGUUCUCAACUAUGACACGCAAAACGCGUGCUCCGUUGAAUGGAGUUUAUCAUG [C75G U78G C85G C93A] | ≤ -4.2
GGAUCUUCUCGAUCUAACAAAAAAGACAAAUCUGCCACAAAGCUUGAGAGCAUCUUCGGAUGCAGAGGCGGCAGGCUGCGGUUGCGCGAUAGCGCCUACGUUCUCAACUAUGACACGCAAAACGCGUGCUCCGUUGAAUGGAGUUUAUCAUG [C75G U78G G83U A97U] | ≤ -4.2
GGAUCUUCUCGAUCUAACAAAAAAGACAAAUCUGCCACAAAGCUUGAGAGCAUCUUCGGAUGCAGAGGCGGCAGGCUUCGGAGGAGCGAUAGCGCCAACGUUCUCAACUAUGACACGCAAAACGCGUGCUCCGUUGAAUGGAGUUUAUCAUG [C75G U82A C85A] | ≤ -4.2
GGAUCUUCUCGAUCUAACAAAAAAGACAAAUCUGCCACAAAGCUUGAGAGCAUCUUCGGAUGCAGAGGCGGCAGGCUUCGGCGGGGCAAUAGUGCCAACGUUCUCAACUAUGACACGCAAUUCGCGUGCUCCGUUGAAUGGAGUUUAUCAUG [C75G U82C C85G G88A C93U A121U A122U] | ≤ -4.2
GGAUCUUCUCGAUCUAACAAAAAAGACAAAUCUGCCACAAAGCUUGAGAGCAUCUUCGGAUGCAGAGGCGGCAGGCUUCGGGGGCGCGAUCGCGCCAACGUUCUCAACUAUGACACGCAAAACGCGUGCUCCGUUGAAUGGAGUUUAUCAUG [C75G U82G A91C] | ≤ -4.2
GGAUCUUCUCGAUCUAACAAAAAAGACAAAUCUGCCACAAAGCUUGAGAGCAUCUUCGGAUGCAGAGGCGGCAGGCUUCGGUGGCGCGACAGCGCGAACGUUCUCAACUAUGACACGCAAAACGCGAGCUCCGUUGAAUGGAGUUUAUCAUG [C75G U90C C96G U127A] | ≤ -4.2
GGAUCUUCUCGAUCUAACAAAAAAGACAAAUCUGCCACAAAGCUUGAGAGCAUCUUCGGAUGCAGAGGCGGCAGGCUUCGGUGGCGCGAUAGCGCCAACGUUCUCAACUAUGACACGCAAAACGCGAGCUCCGUUGAAUGGAGUUUAUCAUG [C75G U127A] | ≤ -4.2
GGAUCUUCUCGAUCUAACAAAAAAGACAAAUCUGCCACAAAGCUUGAGAGCAUCUUCGGAUGCAGAGGCGGCAGUCUUCGGUGGCGCGCUAGCGUCAACGUUCUCAACUAUGACACGCAAAACGCGUGCUCCGUUGAAUGGAGUUUAUCAUG [C75U A89C C95U] | -0.65
